The target in the experiment is L1 (DV1-GV4) (human). As to the kind of experiment: DELFIA affinity ranking, signal with 100 nM biotinylated L1.
Chain of L1 (DV1-GV4) (human) (chain, as listed by the source, chain 1 of 2): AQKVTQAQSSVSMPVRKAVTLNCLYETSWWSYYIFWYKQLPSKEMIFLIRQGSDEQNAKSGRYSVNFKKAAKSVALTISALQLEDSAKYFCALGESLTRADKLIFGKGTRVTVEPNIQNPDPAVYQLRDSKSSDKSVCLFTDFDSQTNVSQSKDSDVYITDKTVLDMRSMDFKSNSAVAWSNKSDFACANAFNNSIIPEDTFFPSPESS
Chain of L1 (DV1-GV4) (human) (chain, as listed by the source, chain 2 of 2): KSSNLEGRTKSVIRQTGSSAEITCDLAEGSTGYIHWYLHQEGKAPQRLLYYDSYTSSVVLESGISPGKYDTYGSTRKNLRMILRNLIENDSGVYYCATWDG

B1: 1245_P01_G06 scFv (scFv)
scFv: QVQLVESGGGLVKPGGSLRLSCAASGFTFSDYYMSWIRQAPGKGLEWVSYISSSGSTIYYADSVKGRFTISRDNAKNSLYLQMNSLRAEDTAVYYCARHSWNDAFDVWGQGTLVTVSSGGGGSGGGGSGGGAS[about 100 residues omitted here]
B1 had a 100 nM L1 of 22500.

The values above are taken from patent publication EP4218932A2.
